In all, about 340,000 compounds went through this assay and about 12,000 (3.5%) were called active. The shares of active, inactive and inconclusive entries below differ from those in the screen. Calls come from the whole dose curve; as a rule, active = well fitted inhibition curve with a large enough effect; inconclusive = small, poorly fitted or top-dose-only effect, or another doubt; inactive = no such curve, though single readings can be large or run the other way. Potencies of inconclusive entries are left out as doubtful fits.
Assay: qHTS Assay for Inhibitors of Hepatitis C Virus (HCV)
Details: Huh7.5.1 HCVcc-Cre (HCVcc is cell-culture hepatitis C virus) infection, luciferase reporter, 44 h; activity change, negative = inhibition: at 41.8 µM (top of the series)
In short: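 Infectious HCV cell culture screen: compound-treated cells (1,000/well, pre-plated 4 h) are infected with HCVcc-Cre at roughly 0.5 moi and grown 44 h. Infection is quantified by luciferase signal after 15 min substrate incubation at room temperature.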
% is set by controls: 0 for no effect and ±100 for the full control effect; potency is the fitted concentration of half-maximal effect; tags give direction and shape of the fitted curve.

For `Cc1cccc(Nc2nc(-c3sc(C)nc3C)cs2)c1`, which Potency is on record?
Its Potency is active: 2.82 µM.

With `COC(=O)c1sc(N/N=C/c2ccc(C(C)C)cc2)nc1C` as the compound, how does the Potency read?
The Potency was inconclusive [inhibitor, partial curve].

Which Potency does the source give for `COc1ccc(-c2csc(NC(=O)c3cccc(N4C(=O)CCC4=O)c3)n2)cc1OC` here?
The Potency was inconclusive [inhibitor, single point].

For `COc1cccc(/C=N/NC(=S)Nc2cccnc2)c1`, which Potency is on record?
The Potency was inconclusive [inhibitor, partial curve, poor fit].

With `COc1cc(CC2COC(=O)C2(O)Cc2ccc(O)c(OC)c2)ccc1O` (stereo unspecified) as the compound, how does the Potency read?
Its Potency is inconclusive [inhibitor, partial curve].

For `Cc1cccc(NC(=O)COc2ccccc2C(=O)NC(C)c2ccccc2)c1` (stereo unspecified), which Potency is on record?
The Potency was active: 10 µM.

For `CCCCC(=O)O[C@H]1CC[C@H]2[C@@H]3CCc4cc(O)ccc4[C@H]3CC[C@]12C`, which Potency is on record?
The Potency was inconclusive [inhibitor, single point].

Which “activity change, negative = inhibition” value does the source give for `Cc1nc2ccc(N=NC3=C(O)CC(C)(C)CC3=O)cc2s1` here?
Its value is inactive: 11.5%.

With `Cc1ccc(N2CC(C(=O)N3CCOCC3)CC2=O)cc1Cl` (stereo unspecified) as the compound, how does the “activity change, negative = inhibition” value read?
Its value is inactive: -13.8%.

Which Potency does the source give for `COCCOC(=O)c1[nH]c2c(c1C)C(=O)CC(c1ccc(OC)c(OC)c1)C2` (stereo unspecified) here?
Its Potency is active: 10 µM.

Which Potency does the source give for `CCN(CC(=O)Nc1ccc(OC)c(OC)c1)S(=O)(=O)c1ccc(C)cc1` here?
The Potency was inconclusive [inhibitor, single point].

For `CN(Cc1ccccc1)C(=O)c1cccc(NC(=O)Cc2ccc(NC(=O)C3CCCN(C(=O)C4CC4)C3)cc2)c1` (stereo unspecified), which Potency is on record?
Its Potency is inconclusive [inhibitor, full curve, poor fit].

Which “activity change, negative = inhibition” value does the source give for `O=C(N/N=C/c1ccccc1C(=O)O)c1ccccc1Br` here?
Its value is inactive: 19.9%.

With `O=C(c1ccc(F)cc1F)C1CCN(c2ccc([N+](=O)[O-])cn2)CC1` as the compound, how does the Potency read?
The Potency was active: 4.47 µM.

With `Cc1cccc(NC(=O)CNC(=O)COc2ccc(C(=O)c3ccc(F)cc3)cc2)c1C` as the compound, how does the Potency read?
Its Potency is inconclusive [inhibitor, single point].

Which “activity change, negative = inhibition” value does the source give for `O=C(c1cc(-c2ccco2)nc2ccccc12)N1CCCC(C(F)(F)F)C1` (stereo unspecified) here?
Its value is inactive: -5.12%.

For `Cn1cnc([N+](=O)[O-])c1Sc1nc(N)nc2c1ncn2Cc1ccccc1`, which Potency is on record?
Its Potency is inconclusive [inhibitor, partial curve].

For `CC(/C=C1\SC(=O)N(CC(=O)Nc2ccc(O)cc2)C1=O)=C\c1ccccc1`, which Potency is on record?
Its Potency is inconclusive [inhibitor, partial curve, poor fit].

For `Cc1cc(N)n2ncc(-c3ccc(Cl)cc3)c2n1`, which Potency is on record?
Its Potency is inconclusive [inhibitor, partial curve].

For `Cc1ccc(CNC(=O)c2cc3ccccc3oc2=O)cc1`, which “activity change, negative = inhibition” value is on record?
Its value is inactive: 6.16%.

For `Cc1cc(C)nc(N/N=C/c2cccc([N+](=O)[O-])c2)n1`, which “activity change, negative = inhibition” value is on record?
Its value is inactive: -11.8%.

For `CCOC(=O)N1CCN(C(=O)Cc2ccccc2OC)CC1`, which “activity change, negative = inhibition” value is on record?
Its value is inactive: -19.1%.

With `O=C(Nc1nc(-c2cccnc2)cs1)c1cccc([N+](=O)[O-])c1` as the compound, how does the Potency read?
Its Potency is inconclusive [inhibitor, partial curve].

For `COC(=O)c1c(/N=C/N(C)C)sc2c1CCN(c1ncc(C(F)(F)F)cc1Cl)C2`, which “activity change, negative = inhibition” value is on record?
The value was inactive: -17.3%.

With `C=CCc1c(C)nc(-c2ccccc2)nc1Nc1ccccc1O` as the compound, how does the Potency read?
Its Potency is inconclusive [inhibitor, single point].

With `CC1CCCN(CCS(=O)(=O)c2ccccc2)C1` (stereo unspecified) as the compound, how does the “activity change, negative = inhibition” value read?
The value was inactive: -5.13%.

For `CCOC(=O)c1c(-c2ccccc2)oc2ccc(OCC(=O)NNC(=O)CCC(=O)O)cc12`, which “activity change, negative = inhibition” value is on record?
Its value is inactive: 5.34%.

Which Potency does the source give for `CCN(CC)c1nc(C)nc2c1sc(=S)n2C` here?
Its Potency is inconclusive [inhibitor, partial curve].

For `COCCCn1nnnc1SCC(=O)Nc1ccc2c(c1)OCCO2`, which “activity change, negative = inhibition” value is on record?
Its value is inactive: 11.9%.

With `NC(=O)c1nsc(C(=O)N(Cc2ccco2)C(C(=O)NCc2ccc(F)cc2)c2ccc(O)cc2)c1N` (stereo unspecified) as the compound, how does the “activity change, negative = inhibition” value read?
The value was inactive: -24.9%.

For `Cc1ccc(Nc2nc(CSc3nnc(-c4ccncc4)n3-c3ccccc3C)cs2)cc1`, which Potency is on record?
The Potency was active: 10 µM.

Which “activity change, negative = inhibition” value does the source give for `COc1ccc(CCn2c(-c3ccc(Cl)cc3)n[nH]c2=S)cc1OC` here?
Its value is inactive: 13%.

Which Potency does the source give for `COc1ccccc1C(=O)NCC(=O)OCC(=O)NNC(=O)c1ccc(Br)cc1` here?
Its Potency is inconclusive [inhibitor, partial curve].

With `O=C1CSC(=S)N1/N=C/c1ccc(O)c(O)c1O` as the compound, how does the “activity change, negative = inhibition” value read?
Its value is inactive: 2.93%.

Which Potency does the source give for `CC(=O)Nc1cc2c3ccccc3ccc2c2ccccc12` here?
The Potency was inconclusive [inhibitor, single point].

Which Potency does the source give for `CCOc1ccc(Nc2cc(C)nc3c(C)cccc23)cc1` here?
Its Potency is inconclusive [inhibitor, single point].

Which Potency does the source give for `O=C(NCCN1CCN(c2ccccc2)CC1)Nc1ccc(Cl)cc1` here?
Its Potency is inconclusive [inhibitor, single point].

With `O=C([C@@H]1CCCN1C(=O)c1cccs1)N1CCN(S(=O)(=O)c2cccc(F)c2)CC1` as the compound, how does the Potency read?
The Potency was inconclusive [inhibitor, single point].

Which Potency does the source give for `COc1ccc(OC)c(N/C(=N/C(=S)Nc2ccccc2)Nc2nc(C)cc(C)n2)c1` here?
The Potency was inconclusive [inhibitor, partial curve].

With `C[n+]1c2n(c3ccccc31)N=C(c1ccc(Br)cc1)CS2` as the compound, how does the Potency read?
The Potency was inconclusive [inhibitor, single point].

Which “activity change, negative = inhibition” value does the source give for `O=C(Cn1cnc2ccccc2c1=O)c1ccc2c(c1)OCCO2` here?
The value was inactive: 17.3%.

With `Cc1ccc(NC(=O)CN(C)Cc2nc3ccccc3c(=O)[nH]2)c(Br)c1` as the compound, how does the Potency read?
Its Potency is inconclusive [inhibitor, single point].

With `CC(C)NC(=O)c1cc(-c2ccco2)nn1-c1ccc(Cl)cc1` as the compound, how does the Potency read?
Its Potency is inconclusive [inhibitor, partial curve].

With `O=S(=O)(c1ccc(SCc2ccccc2)nc1)N1CCCCCC1` as the compound, how does the Potency read?
The Potency was inconclusive [inhibitor, single point].

Which Potency does the source give for `CCOC(=O)c1cnc(SC)nc1N1CCCC1` here?
The Potency was inconclusive [inhibitor, single point].

Which “activity change, negative = inhibition” value does the source give for `C#CCOCCOCCOCCNc1nc(N2CCN(C(=O)[C@H](CCCCN)n3cc([C@@H](N)C(C)CC)nn3)CC2)nc(N2CCN(C(=O)[C@H](Cc3ccc(O)cc3)n3cc([C@@H](N)CC(C)C)nn3)CC2)n1` (stereo partly specified) here?
The value was inactive: 26%.

For `CCOc1ccc(NC(=O)CSc2nnc(-c3ccco3)n2C)cc1`, which “activity change, negative = inhibition” value is on record?
The value was inactive: -7.95%.

With `CCOc1cc(/C=C2/NC(=O)N(CC(=O)Nc3cccc(C)c3)C2=O)ccc1OC` as the compound, how does the “activity change, negative = inhibition” value read?
The value was inactive: -12.5%.

For `CC1=C(CCN2CCN(C3CCCC3)C(CCO)C2)C(C)(C)CCC1` (stereo unspecified), which Potency is on record?
Its Potency is inconclusive [inhibitor, single point].

With `O=C(Cc1ccccc1)Nc1ncccn1` as the compound, how does the Potency read?
The Potency was inconclusive [inhibitor, partial curve, poor fit].

With `COc1ccc(C2=CC(=O)CC(c3ccccc3)C2)cc1` (stereo unspecified) as the compound, how does the Potency read?
The Potency was inconclusive [inhibitor, single point].

Which Potency does the source give for `S=C(Nc1ccccn1)Nc1ccccc1Cl` here?
Its Potency is inconclusive [inhibitor, single point].

With `CCn1nc(C(=O)NC2=NCCS2)c2ccccc2c1=O` as the compound, how does the Potency read?
Its Potency is inconclusive [inhibitor, single point].

Which Potency does the source give for `CCOC(=O)Nc1ccc2c(c1)C(=NO)c1ccccc1-2` here?
Its Potency is inconclusive [inhibitor, single point].

Which Potency does the source give for `c1ccc(Sc2cccc3ccccc23)c(CNC2=NCCN2)c1` here?
The Potency was inconclusive [inhibitor, single point].

Which Potency does the source give for `O=C(c1ccc(Cl)cc1Cl)N1CCN(c2ccc(N3CCOCC3)nn2)CC1` here?
The Potency was inconclusive [inhibitor, single point].

Which Potency does the source give for `COC(=O)c1ccc(C)c(NC(=O)c2ccc(Cl)c([N+](=O)[O-])c2)c1` here?
The Potency was inconclusive [inhibitor, single point].

With `COc1ccc(/C=N/NC(=O)CNS(=O)(=O)c2ccc(C)cc2)cc1` as the compound, how does the Potency read?
Its Potency is inconclusive [inhibitor, single point].

Which Potency does the source give for `O=C(COC(=O)c1cc([N+](=O)[O-])ccc1N1CCOCC1)Nc1ccccc1OC(F)F` here?
The Potency was inconclusive [inhibitor, full curve].

Which “activity change, negative = inhibition” value does the source give for `COc1cc(NC(=O)c2ccc3c(c2)OCCO3)ccc1NC(=O)c1ccco1` here?
Its value is inactive: -28.6%.

Which Potency does the source give for `CC(Nc1nc(-c2ccc(F)cc2)cs1)c1nc2cc(Cl)c(Cl)cc2n1CCCO` (stereo unspecified) here?
The Potency was inconclusive [inhibitor, single point].

With `FC(F)(F)c1ccc(N2CCOCC2)c(Nc2nc3ccccc3n3cnnc23)c1` as the compound, how does the Potency read?
Its Potency is inconclusive [inhibitor, single point].

Which Potency does the source give for `Cc1ccc(NN=C2c3ccccc3-c3ccccc32)cc1` here?
Its Potency is inconclusive [inhibitor, single point].

With `Cc1nn(Cc2ccc(C(=O)Nc3ccccc3C(F)(F)F)o2)c(C)c1Br` as the compound, how does the Potency read?
Its Potency is inconclusive [inhibitor, full curve, poor fit].

For `CCOc1cccc(CN2CCCC(CCC(=O)NCc3ccccc3F)C2)c1O` (stereo unspecified), which “activity change, negative = inhibition” value is on record?
Its value is inactive: -6.05%.

With `Cc1cc(NC(=O)CSc2ccc(-c3nc4cc(C)c(C)cc4[nH]3)cn2)no1` as the compound, how does the “activity change, negative = inhibition” value read?
Its value is inactive: -5.6%.

With `CCCC(=O)NC(c1ccc(C(C)C)cc1)c1ccc2cccnc2c1O` (stereo unspecified) as the compound, how does the Potency read?
The Potency was active: 1.78 µM.

For `Cc1cccc(NC(=O)c2ccccc2-c2ccccc2)c1`, which “activity change, negative = inhibition” value is on record?
Its value is inactive: -5.53%.

For `COc1cccc(N2CCN(CC(=O)Nc3ccc(S(=O)(=O)N4CCCCCC4)cc3)CC2)c1`, which Potency is on record?
The Potency was inconclusive [inhibitor, full curve, poor fit].

With `O=C(CN1CCC(C(=O)c2ccc3c(c2)OCCO3)CC1)NCc1ccc(F)cc1` as the compound, how does the Potency read?
Its Potency is inconclusive [inhibitor, partial curve, poor fit].

For `COc1cc(COc2ccc3c(C)c(Cc4ccccc4)c(=O)oc3c2C)cc(OC)c1OC`, which Potency is on record?
The Potency was active: 6.31 µM.
